This is one part of the list.
Tested on: PF3D7_0420300 AP2 domain 1 (GST-tagged)
Experiment: gcPBM binding intensity (ln(normalized median fluorescence intensity)); higher = stronger DNA binding
Outline: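 Probes on an Agilent 4 × 180k array were primer-extended, double-stranded and 36 bp long, taken from intergenic genomic regions, with negative controls added. GST-tagged P. falciparum DNA-binding domains from E. coli, about 25 μg on average, were applied to the array for 1 h in 1× PBS containing 1% milk, 0.2 mg/ml BSA, 0.5% salmon testes DNA and 0.03% Triton X-100. Binding intensity, obtained after Alexa488 anti-GST antibody detection and a 488 nm scan, is the highest Masliner-normalised natural-log median intensity across replicate spots of either probe orientation.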

Sequence | gcPBM binding intensity (ln)
ATGTATATATTTACGTGTACATATTCATGTGATATC [XGTACX_site5871] | 9.26
TGCTATTTTTTCCTTTTTTTGTATCACAATCATATA [CACACA_negctrl_site1576] | 9.43
TTATACTTTGGGTGGTGTACTATATTATGCTTATAA [XGTACX_site1106] | 9.51
ATTAAACATAAATATGCACACATATACATATATTCA [CACACA_site8850] | 9.4
TAAAATAGAAATATATGTACATATATATATGTATAT [XGTACX_site4134] | 9.28
CGATATTCTAAGGATAGTACATAATAAAATAGAGTA [XGTACX_site4224] | 9.28
ATTTATATTTTTTAATGTACATTTATATGTATACAA [XGTACX_site4555] | 9.25
AAAAAACGCACTCGTACACACATATTTTCTTTCTAA [CACACA_site3089] | 9.57
ATATAATCAACTGCAAAGGTTTAAAAGGAAAAAATA [CACACA_negctrl_site989] | 9.34
TTAATTACACAAAAAAGTACTTGATATTGTTTATTA [XGTACX_site3449] | 9.13
AATATTTACCAGAAAATAAAAATATGTATATATATA [CACACA_negctrl_site351] | 9.32
TTTTTATTCAACAAAAATATCAAACATAATTATAAA [CACACA_negctrl_site616] | 8.93
AATATTTATATTTACACACACATAATACATATATGT [CACACA_site33] | 9.97
TTCCTTTAACCCTGCACACATACATACATTTATATG [CACACA_site3953] | 9.77
ATTTTTATGTCTTTCTATAAATCGAAAATATACATA [CACACA_negctrl_site477] | 9.02
ATATACAACTAAAGAACACACATCATTGTTCATTGG [CACACA_site3681] | 9.57
CAAATACACGGACACACACACACAAAAAAAAAAAAA [CACACA_site6385] | 10.1
AAATTATTGTAAAATAGTACAGTGAAACATAAAGTT [XGTACX_site589] | 9.55
TAAATACAAGTAAAAAGTACAGAAAAATTATATATA [XGTACX_site1758] | 9.41
TTTATTTGGACATATACACACTTAAATATGTTTATT [CACACA_site6021] | 9.32
TTTATTTTGTTTTCTTGTACATAAATAATTACATAT [XGTACX_site4227] | 9.44
TATAAAAAATTCAATACACACCATATATAAATATAT [CACACA_site6060] | 9.56

Sequence | gcPBM binding intensity (ln)
AAGAGAAATGGGCACACACACACATATTATAGATAT [CACACA_site6828] | 10.2
TGATTCACTATAGTAGTGCATATTATATATATATAT [GTGCAC_site9975] | 9.2
TATAATAATTCATAATGTACTTTTATCAAAAAAGTA [XGTACX_site6868] | 8.87
ATTCTACACGCACATACACACATATAAATATAAATA [CACACA_site7582] | 9.78
ATTTATGTTATTGTATGTACACAATATAATGTTATT [XGTACX_site5657] | 9.4
AAAAAAAAATATATATATATATATATATAATAAAAA [CACACA_negctrl_site639] | 8.99
AAAAAAAAAAAATGTGCACACGCGTACAGACAAAAA [CACACA_site2005] | 9.91
TAAAAAGTACATTATTCATGGCCTATTACATTTTTT [GTGCAC_negctrl_site282] | 9.19
ATATTTTACATATTTGCACACATATATTTAAATACA [CACACA_site4628] | 9.63
ACACAAAAATAGTTTTTTATATTGTTAACCTTATAT [XGTACX_negctrl_site123] | 9.37
ATAATATATATGAAATGTACATAAATTTAATGCGAC [XGTACX_site5394] | 9.76
ATGTGCACATGTAGAAGTACTTTTTCTTAAAATACT [XGTACX_site8341] | 9.09
TATGTTTTATATAAGATGCACTTTTGTTATGCTTCA | 9.15
CTTTTTTTTTTGTATTGTACTTTATTTTTACATCGT [XGTACX_site2918] | 9.65
ATTCTAATTTTATGAAACGATTATTTTGAATTCATT [XGTACX_negctrl_site578] | 9.13
ATTTTTAATTTTTTCACACATATATTTAAAATAAAA [CACACA_site4799] | 9.08
GATTACCTTTTTTTTTTTTTTTTTTTTTTTTTTTTC [CACACA_negctrl_site147] | 9.14
ATAAAAAAAAATATATGTACATATATAAATTGATAT [XGTACX_site7409] | 9.35
TATATTTTTTAAAAAAGTACAAAGTAATTATTGATT [XGTACX_site2420] | 9.06
TGAAATGAAAGAACAGCACACATATATATTATATAT [CACACA_site8613] | 9.54
GTAGTACATTCTAGAATACACACCTATATATATATA [CACACA_site522] | 9.44
ATATGAAAAACTTCATGTACTTATTATAAAATATAA [XGTACX_site2725] | 8.93

Sequence | gcPBM binding intensity (ln)
CGTCCAAAATATCCTTCACACACGAACAGTTTCATT [CACACA_site2729] | 9.63
CTATAATATTATAACAGTACATAATATTATATATAT [XGTACX_site1414] | 9.24
TTTAAATAAAAATGGAGTACTCTAAAAAAAAAAAAA [XGTACX_site1233] | 9.04
ATATATATATATAATACACACATAAATGAATATATA [CACACA_site316] | 9.59
TTTATATAATATTCTACACACCAACAACAAACATAT [CACACA_site4478] | 9.76
GCATTGATCAAACATACACACATGGTTAATAAAAAT [CACACA_site2085] | 9.43
GTGATTTCTATGAATTGTACTTAAATATAGTTATAT [XGTACX_site231] | 9.27
TTATAGACATATATAGGTACACATATTTTCAATCCC [XGTACX_site8230] | 9.27
ATTTATTAATCATATACACACATATATTTGTATTTA [CACACA_site1336] | 9.58
TATTTTTTTAAAATAGGTACACAATCAAACATTTAT [XGTACX_site8785] | 9.08
ACCTCATAATATTTAACACACAAAATTATCTGTATG [CACACA_site5015] | 9.64
AATATATATATAAATAGTACATATAAAGAGAATTTT [XGTACX_site3168] | 9.44
CAGAAATATTCTTATACACACTGTTCTTATATTCCT [CACACA_site4318] | 9.51
ATTAAAACAAAATGTACACACATATAATTTAATGAC [CACACA_site878] | 9.58
TTTATCTTTTTTTGTTGTACAGATGTTTATATTTTA [XGTACX_site4065] | 9.53
AATAACATTATTTTATGTACACATGAAAAATAAAAT [XGTACX_site4657] | 9.26
TGTAATAAACTACTTTTTTTTTTTTTTTTTTTTTTT [CACACA_negctrl_site1021] | 9.22
AATATCAAAATAACATGTACATGTTATATTTTATTT [XGTACX_site5891] | 9.22
TGATATTTCATCATAGTGCAATATGGCATATAAATA [GTGCAC_site9433] | 9.14
GTATATATCTCAGAGCATAATAGTATAATTCGGTCA [CACACA_negctrl_site876] | 9.24
AATTATTTTAGAAACACACAAATTAGAAAAAACATA [CACACA_site7673] | 9.62
AAAAAATATAAAAAAACACACAAAAAAAAAAAAAAA [CACACA_site1382] | 9.4

Sequence | gcPBM binding intensity (ln)
TTCTTAAAAAATCAAACACACATATATAAATACATA [CACACA_site5301] | 9.52
AAAGACGTTTATAAATGTACATACACTTTAAAAGTT [XGTACX_site8753] | 9.08
CCCCATTTATCTTAAGCATGCCATGGTTTTAGATAT [TGCATGCA_site24] | 9.43
ATAAAAAAAAAAAATACACACATATATATATATATA [CACACA_site1709] | 9.41
TTATTTATTTATTATAGTTCACTTGAAAATACAAGA [CACACA_negctrl_site1480] | 8.84
CATATATACAGTAACACACACAAAAAAATATGAATA [CACACA_site3996] | 10
AATAGTGTCATAAAAACTATTATCATATAATGTGAA [CACACA_negctrl_site1578] | 9.14
TAATTTATAACACGCGCACACATATATATATAGTAA [CACACA_site121] | 9.57
TTGTTGTGTATTATCGTGCACATAATATAAAAGATT | 9.19
TTTCTTTTTAACTCTTACATAATAGGTGGTAGAAGG [TGCATGCA_negctrl_site176] | 8.79
ATACTAAATGAACACACACACATATATATATATAAT [CACACA_site4232] | 10.1
TATAACTTTTTTATTACACACCTATGTAATATTATA [CACACA_site944] | 9.37
AACAGACATAGAAACACACATACATACATACATACA [CACACA_site2479] | 9.41
ATGTTTTATATTTTTTTTTTGTTTGCTTGTTTCCTC [CACACA_negctrl_site870] | 9.48
AAGGGAAATATTGAAACACACACGAACCCACGTATT [CACACA_site252] | 9.73
TTCTTAAATGTAAATGTATATGTATTAAAAAGAGAA [TGCATGCA_negctrl_site597] | 9.1
TACTGTGTTTTGGTTGTACACACGCTACATTATATA [CACACA_site8863] | 9.78
TTATAATATTAATGTGCACACAATTAAAATATTATA [CACACA_site2046] | 9.23
AGGATATAAATATTCACACACACATGGAGATATATA [CACACA_site6317] | 9.98
TACATTAACGGATTATTTCTCAATACAACATCATTT [CACACA_negctrl_site981] | 9.15
GTTTGTATGTCCAAATGTACATATGATTTTATGAAA [XGTACX_site6595] | 9.2
ACCTAATTCAAATACAGTACATATACAATATATATA [XGTACX_site2779] | 9.32

From the supplement of paper PMC11417369
